The record followed here is the RNAGym collection of RNA variant scans (doi:10.7554/elife.90254).

The source gives no read counts; variants with many changes may rest on few reads.

Sequences and labels used below:
B1: OR4K15 (parent)
chain: GUUAACGGUCAUAGGCCAUGGAAACUAGGAGCACCAUUUCGCUGCCAGUGAAGAAAUGAACAAAGAAAAUCUGGGCCAGGCAGGCAUCAAAAGAAAUAGUCUUGCGCUCAACCAGAAAGUCUGUAAUCAUUUUAAGGGUA

Variants of B1 are the subject of the data set. Briefly: self-cleavage, relative activity (ratio to wild type); higher = more cleavage; in vitro, sequencing; the parent is a self-cleaving ribozyme.
As to U9C A66U G80A U108C, the self-cleavage worked out at 0.01.
In the case of A11G A13G U87C U122C it was 0.05; in that of U9C A24G A78G A135G, 0.11.
In the case of U9G A86G A118G it was 0.52; in that of U9C A62G A92G, 2.39; in that of C10U A33G U131A A140U, 0.29.
The result for U9C A22U A89G reads 1.52; that for A11C A23G A52G A63U U97C, 0.45.
Take U9C U26C A30G G106U: the self-cleavage worked out at 0.
The result for A11C U37C A116G reads 0.84; that for U9C A78U G79U G136A, 0.15; that for U9C A64G A92G, 1.25.
In the case of U9C A64G A92U it was 1.63.
In the case of A11G A51C U139C it was 0.52; in that of A11G A54G A116G, 0.4; in that of A11G A23U A63G A67G U70G U103C U108C A118G, 0.02.
As for U9C U43C A118G, the self-cleavage was 1.47.
In the case of U9C A47U U72C U139C it was 0.15; in that of U9C A64G U103C A117G, 1.69; in that of U9C U38C G44U, 1.41.
As to C10A A51G U87A, the self-cleavage was 0.51.
Take A11G A33G A59G G106C A117G: the self-cleavage was found to be 0.03.
In the case of U9C U38C A129G it was 1.46; in that of U9C A62G A116G, 0.69; in that of A11C A30G A59G A110G, 0.09.
In the case of U9C A52G A54U A55G, the self-cleavage came to 1.16.
In the case of U9C A52G A66G A68G it was 1.02; in that of U9C A64G A118G, 1.48.
The result for U9C A24G A91U C109U reads 0.22.
In the case of U9C U19C A54G A62G it was 1.6.
Take C10U A56G U108A U139G: the self-cleavage was found to be 0.08.
The result for C10U A89G A90G A96G U132C reads 0.4.
Turning to U9C U38A A89G A129G, the self-cleavage stood at 1.2.
The result for A11G A18G A54G A110G reads 0.07; that for A11G A54G U72A U127C, 0.12.
As for A11C U37C A54G, the self-cleavage came out at 1.72.
The result for U9C A24G A60U reads 1.43; that for A11G A23G U39C A117G A129C, 0.56; that for U9C U19A A52G A78G A110G A116G, 0.02.
The result for U9G U70C U87C U120C reads 0.2; that for U9C A95G A114U, 0.38; that for A11G A22G A62C A63G A66G, 0.48.
The result for A11G A47G A69G reads 1.72; that for U9C A23G U26C G138A, 0.81.
A11C A22G A78G: the self-cleavage turned out to be 0.4.
The result for U9C A59G U103C U108C reads 0.04; that for U9C A55U U131C, 1.67; that for U9C A82U U108G, 0.06.
As for U9G U49C U122C, the self-cleavage was 0.32.
U9C A33G U38C U39C A59U A90G U131C: the self-cleavage is 0.19.
A11G A18G A64C U87C A98G A125G U127C U130C: the self-cleavage was determined as 0.25.
The result for U9C U38C G99U U102C U127A reads 2.98.
The result for U9C C77A A90G reads 0.75.
The result for C10U A52G U72A U100C A118C U127C reads 0.05; that for U9C C85U U100C, 1.72.
Turning to A11G A18U A33G, the self-cleavage stood at 1.13.
The result for U9C A30G A59G A68G U103C reads 0.74; that for U9C U97A U120A, 2.14.
The result for A11G A24G A78U A86G reads 0.29; that for U9C A47G U122C, 0.6.
Turning to U9C A33G U39C A92G C128U, the self-cleavage was determined as 0.62.
For A11G A54G U127C U133C, the self-cleavage was 0.52.
In the case of U9C A82G U103C U124A it was 1.62.
On to U9C A52G A111G, for which the self-cleavage was found to be 0.03.
In the case of U9C A30U A118G it was 1.56; in that of U9C U43A A55G A59G U122C, 0.91; in that of U9C A24U U49A A52G, 0.96.
The result for C10U A24C A69G A116G reads 0.78.
Turning to U9C A23G U122C, the self-cleavage was determined as 0.47.
The result for A11G A22G A33G A64U A117G reads 0.59; that for U9C U70C A90G U102C, 1.41; that for U9C A69G U102C, 1.74.
In the case of U9C U19G A30G A78U A91G U100G A118U it was 0.33; in that of C10U U12C U122C, 0.92.
In the case of U9C A54G G75C U120C it was 0.16; in that of A11G A33G U97C, 0.63; in that of A11G A22G A140G, 0.41.
As to A11C A33U A54U, the self-cleavage was 1.39.
The result for U9C A23G A33G A64G reads 0.25; that for U9C U19A A52U A66G A67U A116U C128A, 0.3; that for U9C U37C A69G U70C U124A U130G, 0.1.
As to U9C G74U U102A A134G, the self-cleavage was found to be 0.09.
In the case of U9C A36G U70C it was 1.36.
